B1: TPR 5TU (parent)
chain: GGAUCUUCUCGAUCUAACAAAAAAGACAAAUCUGCCACAAAGCUUGAGAGCAUCUUCGGAUGCAGAGGCGGCAGCCUUCGGUGGCGCGAUAGCGCCAACGUUCUCAACUAUGACACGCAAAACGCGUGCUCCGUUGAAUGGAGUUUAUCAUG

This is an account of results in the RNAGym collection of RNA variant scans (doi:10.1073/pnas.2313332121).

Variants at the floor of the assay are shown more often than the library holds them.

The data set covers variants of B1. Description: polymerase ribozyme fitness, log enrichment relative to wild type (log ratio); higher = more active; in vitro selection for triplet polymerase activity. A digest of the protocol: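 Fitness compares each genotype's enrichment to that of the wild type on a logarithmic scale, averaging replicates with inverse-variance weights. The logarithm is base 2. Enrichment came from Illumina sequencing of input and output libraries after one triplicate round of in vitro selection, which included frozen incubation at −7 °C, of PCR-built, transcribed mutant libraries of each subunit of a heterodimeric triplet polymerase ribozyme. Only genotypes with ≥10 input reads and ≥1 read per output were kept.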
With GGAUCUUCUCGAUCUAACAAAAAAGACAAAUCUGCCACAAAGCUUGAGAGCAUCUACUGAUGCAGAGGCGGCUGCUUGCGGUGGCGCAAUAGCGUCAACGUUCUUAACUAUGACACGCAAAUCGCGUGCUCGGUUGAAUGGAGUUUAUCAUG [U56A G58U A73U C76U U78G G88A C95U C105U A122U C132G], the “polymerase ribozyme fitness (log ratio)” value was not above -4.2.

In the case of GGAUCUUCUCGAUCUAACAAAAAAGACAAAUCUGCCACAAAGCUUGAGAGCAUCUACGGAUGCAGAGGCGGCAGCCUUCGGUGGCGCAAUAGCGCCAACGUUCUCUACUAUGACACGCAAAACGCGUACUCCGUUGAAUGGAGUUUAUCAUG [U56A G88A A106U G128A], the “polymerase ribozyme fitness (log ratio)” value is not above -4.2.

GGAUCUUCUCGAUCUAACAAAAAAGACAAAUCUGCCACAAAGCUUGAGAGCAUCUACGGAUGCAGAGGCGGCAGCCUUCGGUGACGCGAUAGCGCCAACGUUCUCAACUAUGACACGCAAAACGCGUGCUCCGUUGAAUGGAGUUUAUCAUG [U56A G84A]: the “polymerase ribozyme fitness (log ratio)” value is -1.06.

With GGAUCUUCUCGAUCUAACAAAAAAGACAAAUCUGCCACAAAGCUUGAGAGCAUCUACCGAUGCAGAGGCGGCAGCCUUCGGUGGCGCGAUAGUGCCAACGUUCUCAACUAUGACACGCAAAACGCGGGCUCCGUUGAAUGGAGUAUAUCAUG [U56A G58C C93U U127G U145A], the “polymerase ribozyme fitness (log ratio)” value was -3.83.

Take GGAUCUUCUCGAUCUAACAAAAAAGACAAAUCUGCCACAAAGCUUGAGAGCAUCUACGGAUGCAGAGGCGGCAGCCUUCGGUGGCGCUAUAGCGCCAACGUUCCCAACUAUGACACGCAAAACUCGUGCUCCGUUGAAUGGAGUUUAUCAUG [U56A G88U U104C G124U]: the “polymerase ribozyme fitness (log ratio)” value was not above -4.2.

With GGAUCUUCUCGAUCUAACAAAAAAGACAAAUCUGCCACAAAGCUUGAGAGCAUCUACGGAUGCAGAGGCGACAGCCUUCGGUGGCGCGAUAGCGCUAACGUCCUCAACUAUGACAUGCAAAACGCGUGAUCCGGUGAAUGGAGUUUAUCAUG [U56A G71A C96U U102C C116U C129A U134G], the “polymerase ribozyme fitness (log ratio)” value was not above -4.2.

Take GGAUCUUCUCGAUCUAACAAAAAAGACAAAUCUGCCACAAAGCUUGAGAGCAUCUACGGAUGCAGAGCCGGCAGCCUUUGGUGGCGCGAUAGCGCCAACGUUCUCAACUAUGACACGCAAAACGCGUGCUCCGUUGAAUGGAGUUUAUCAUG [U56A G68C C79U]: the “polymerase ribozyme fitness (log ratio)” value was not above -4.2.

For the variant GGAUCUUCUCGAUCUAACAAAAAAGACAAAUCUGCCACAAAGCUUGAGAGCAUCUACGGAUGCAGAGGCGGCAGCCUUCGGUGGCGCGAUAUCGCCAACGUACUCAACUAUGACACGCAAAACGCGUGCUCCGCUGAAUGGAGUUUAUCAUG [U56A G92U U102A U134C], the “polymerase ribozyme fitness (log ratio)” value is -1.59.

In the case of GGAUCUUCUCGAUCUAACAAAAAAGACAAAUCUGCCACAAAGCUUGAGAGCAUCUACGGAUGCAGAGGCGGCAGCCUUCGGUCGCGUGCUAGCGCCAACGUUCUCAAUUAUGACACGCAAAACGCGUGCUCCGUUGAAUGGAGCUUAUCAUG [U56A G83C C87U A89C C108U U144C], the “polymerase ribozyme fitness (log ratio)” value was not above -4.2.

For GGAUCUUCUCGAUCUAACAAAAAAGACAAAUCUGCCACAAAGCUUGAGAGCAUCUACGGAUGCAGAGGCGGCAGCCUUCGGUGACGCGACAGCGCCAACGUUCUCAACUAUGACACGCAAAACGAGUGCUCCGUUGAAUGGAGUUUAUCAUG [U56A G84A U90C C125A], the “polymerase ribozyme fitness (log ratio)” value was not above -4.2.

Turning to GGAUCUUCUCGAUCUAACAAAAAAGACAAAUCUGCCACAAAGCUUGAGAGCAUCUACGCAUGCAGAGGCGGCAGCCUUCGGUGGCGCGAUAGCGCCAACGUUCUCAACUAUGACACGCAAAACGCGUGCUCCGUUGAAUGGAGGUUAUCAUG [U56A G59C U144G], the “polymerase ribozyme fitness (log ratio)” value came out at 2.23.

As for GGAUCUUCUCGAUCUAACAAAAAAGACAAAUCUGCCACAAAGCUUGAGAGCAUCUACGGAUGCAGAGGCGGCAGCCUUCGGUGACGCGAUAGCGCCAACGUUCUCAACUAUGACACGCAAAACGCGGGCUCCGUUGAAUGGAGUUUAUCAUG [U56A G84A U127G], the “polymerase ribozyme fitness (log ratio)” value is -3.06.

For GGAUCUUCUCGAUCUAACAAAAAAGACAAAUCUGCCACAAAGCUUGAGAGCAUCUACGGAUGCAGAGGCGGCAGCCUUCGCUGGCGCGAUAGCGCCAACGUUCUCAACUAUGACACGCACAACGCGUGCUCCGUUGAAUGAAGUUUAUCAUG [U56A G81C A120C G141A], the “polymerase ribozyme fitness (log ratio)” value turned out to be 0.526.

On to GGAUCUUCUCGAUCUAACAAAAAAGACAAAUCUGCCACAAAGCUUGAGAGCAUCUACGGAUGCAGAGGCGGCAGCCUUCGGUGGCGCCAUAGCGCCAACGUUCUCAACUAUGACACGCAAAACGCGUGCUCCGUUGAAUGGUGUUUAUCAUG [U56A G88C A142U], for which the “polymerase ribozyme fitness (log ratio)” value is not above -4.2.

For GGAUCUUCUCGAUCUAACAAAAAAGACAAAUCUGCCACAAAGCUUGAGAGCAUCUACGGAUGCAGAGGCGGCAGCCUUCGGUGACGCGAUAGCGCCAACGUUCUCAACUAUGACACGCAAAACGCGUGCUCCGUUGAAUGGACUUUAUCAUU [U56A G84A G143C G152U], the “polymerase ribozyme fitness (log ratio)” value was not above -4.2.

On to GGAUCUUCUCGAUCUAACAAAAAAGACAAAUCUGCCACAAAGCUUGAGAGCAUCUACGGAUGCAGAGGCAGCAGCCUUCGGUGGUGCGAUAGCGCCGACGUUCUCAACUAUGACACGCAAAACGCGUGCUCCCUUGAAUGGAGUUUAUCAUG [U56A G70A C85U A97G G133C], for which the “polymerase ribozyme fitness (log ratio)” value is not above -4.2.

Take GGAUCUUCUCGAUCUAACAAAAAAGACAAAUCUGCCACAAAGCUUGAGAGCAUCUACGGAUGCAGAGGCGGCAGCCUUCGGUGGCGCGAUAGCUACAACGUUCUCAACUAUGACACGCAAAACGCGUGCUCCGUUGAAUGGAUUUUAUCAUG [U56A G94U C95A G143U]: the “polymerase ribozyme fitness (log ratio)” value was -3.39.

In the case of GGAUCUUCUCGAUCUAACAAAAAAGACAAAUCUGCCACAAAGCUUGAGAGCAUCUACGAAUGCAGAGGCGGCAGCCUUCGGUGGCGCGAUAGCGCCAACGUUCUGAACUGUGACACGCAAAACGCGUGCUCCGUUGAAUGGAGUUUAUCCUG [U56A G59A C105G A110G A150C], the “polymerase ribozyme fitness (log ratio)” value is not above -4.2.

GGAUCUUCUCGAUCUAACAAAAAAGACAAAUCUGCCACAAAGCUUGAGAGCAUCUACGGAAGCAGAGGCGGGAGCCUUCGGUGGCGCGAUAGCGCCAACGUUCUCAACUAUGACACGCAAAACGCGUGUUCCGGUGAAUGCAGUUUAUCAUG [U56A U61A C72G C129U U134G G141C]: the “polymerase ribozyme fitness (log ratio)” value was not above -4.2.
